The other results are listed elsewhere or left out. Many values rest on one well or one pass, so single values are uncertain.
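Also: cells treated in 1,536-well plates, then fixed and DAPI-stained, with nuclei counted from automated high-throughput microscope images.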

This assay deals with UACC257. Nature of the assay: cell count relative to DMSO control; melanoma cells; higher = more viable cells. Conditions: library dose: standard library concentration; 72 h.
In turn, `N#CC[C@H](C1CCCC1)n1cc(-c2ncnc3[nH]ccc23)cn1` [ruxolitinib] + O=C(/C=C/c1cccnc1)NCCCCC1CCN(C(=O)c2ccccc2)CC1 [FK866] (first compound 5 µM, partner dose 0.05 µM) returned a cell count of 94.8%.

`CC[C@]1(O)C[C@H]2CN(CCc3c([nH]c4ccccc34)[C@@](C(=O)OC)(c3cc4c(cc3OC)N(C=O)[C@H]3[C@@](O)(C(=O)OC)[C@H](OC(C)=O)[C@]5(CC)C=CCN6CC[C@]43[C@@H]65)C2)C1` [vincristine] + COc1cc(Nc2ncc(F)c(Nc3ccc4c(n3)NC(=O)C(C)(C)O4)n2)cc(OC)c1OC [Tamatinib] (first compound 0.0005 µM, partner dose 2 µM) had a cell count of 47.1%. Molecule `N#CC[C@H](C1CCCC1)n1cc(-c2ncnc3[nH]ccc23)cn1` [ruxolitinib] + CC1(C)NC(=O)N(c2ccc([N+](=O)[O-])c(C(F)(F)F)c2)C1=O [nilutamide] (first compound 5 µM, partner dose 5 µM) returned a cell count of 76.5%. `CC[C@]1(O)C[C@H]2CN(CCc3c([nH]c4ccccc34)[C@@](C(=O)OC)(c3cc4c(cc3OC)N(C=O)[C@H]3[C@@](O)(C(=O)OC)[C@H](OC(C)=O)[C@]5(CC)C=CCN6CC[C@]43[C@@H]65)C2)C1` [vincristine] + CC1(C)NC(=O)N(c2ccc([N+](=O)[O-])c(C(F)(F)F)c2)C1=O [nilutamide] (first compound 0.0005 µM, partner dose 5 µM) had a cell count of 57.1%.

Source of the values: the supplement of paper PMC4604168 (melanoma cell lines).
